In article PMC9911399, “Two distinct binding modes provide the RNA-binding protein RbFox with extraordinary sequence specificity”:
Positions count from the first letter of the chain named. The list shows a part of the results.

T1: RBFOX1 RRM RbFoxmut (Fox-RRM*) (Homo sapiens, UniProt Q9NWB1 109-208, R118D;E147R;N151S;E152T)
T1 sequence: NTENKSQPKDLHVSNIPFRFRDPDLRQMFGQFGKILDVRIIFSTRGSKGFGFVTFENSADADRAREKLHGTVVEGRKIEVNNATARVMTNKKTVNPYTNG

B1: GUCGGAA (DNA:RNA)
RNA: GGGAGACCGGAAUUCAGAUUGUCCGUCGGAAUUAAAUCCCGUCGUAGCCACCA
DNA 1: CAATCTGAATTCCGGTCTCCC
DNA 2: TGGTGGCTACGACGGGATT
B2: AAAAUAU (DNA:RNA)
RNA: B1 RNA with G25A, U26A, C27A, G28A, G29U, A31U
DNA 1: CAATCTGAATTCCGGTCTCCC
DNA 2: TGGTGGCTACGACGGGATT
B3: UCUGUCA (DNA:RNA)
RNA: B1 RNA with G25U, U26C, C27U, G29U, A30C
DNA 1: CAATCTGAATTCCGGTCTCCC
DNA 2: TGGTGGCTACGACGGGATT
B4: AGGGCUA (DNA:RNA)
RNA: B1 RNA with G25A, U26G, C27G, G29C, A30U
DNA 1: CAATCTGAATTCCGGTCTCCC
DNA 2: TGGTGGCTACGACGGGATT
B5: GGUCUAG (DNA:RNA)
RNA: B1 RNA with U26G, C27U, G28C, G29U, A31G
DNA 1: CAATCTGAATTCCGGTCTCCC
DNA 2: TGGTGGCTACGACGGGATT
B6: AACCCUC (DNA:RNA)
RNA: B1 RNA with G25A, U26A, G28C, G29C, A30U, A31C
DNA 1: CAATCTGAATTCCGGTCTCCC
DNA 2: TGGTGGCTACGACGGGATT
B7: AGUAUCC (DNA:RNA)
RNA: GGGAGACCGGAAUUCAGAUUGUCCAGUAUCCUUAAAUCCCGUCGUAGCCACCA
DNA 1: CAATCTGAATTCCGGTCTCCC
DNA 2: TGGTGGCTACGACGGGATT
B8: UUGGGGC (DNA:RNA)
RNA: B1 RNA with G25U, C27G, A30G, A31C
DNA 1: CAATCTGAATTCCGGTCTCCC
DNA 2: TGGTGGCTACGACGGGATT
B9: UAAGCGC (DNA:RNA)
RNA: B7 RNA with A25U, G26A, U27A, A28G, U29C, C30G
DNA 1: CAATCTGAATTCCGGTCTCCC
DNA 2: TGGTGGCTACGACGGGATT
B10: UUACAGA (DNA:RNA)
RNA: B1 RNA with G25U, C27A, G28C, G29A, A30G
DNA 1: CAATCTGAATTCCGGTCTCCC
DNA 2: TGGTGGCTACGACGGGATT
B11: UCAGCAU (DNA:RNA)
RNA: B1 RNA with G25U, U26C, C27A, G29C, A31U
DNA 1: CAATCTGAATTCCGGTCTCCC
DNA 2: TGGTGGCTACGACGGGATT
B12: CAACAAA (DNA:RNA)
RNA: B1 RNA with G25C, U26A, C27A, G28C, G29A
DNA 1: CAATCTGAATTCCGGTCTCCC
DNA 2: TGGTGGCTACGACGGGATT
B13: AGUAUAA (DNA:RNA)
RNA: B7 RNA with C30A, C31A
DNA 1: CAATCTGAATTCCGGTCTCCC
DNA 2: TGGTGGCTACGACGGGATT
B14: AACACCU (DNA:RNA)
RNA: B7 RNA with G26A, U27C, U29C, C31U
DNA 1: CAATCTGAATTCCGGTCTCCC
DNA 2: TGGTGGCTACGACGGGATT
B15: UUGAUGA (DNA:RNA)
RNA: B7 RNA with A25U, G26U, U27G, C30G, C31A
DNA 1: CAATCTGAATTCCGGTCTCCC
DNA 2: TGGTGGCTACGACGGGATT
B16: CGUCCAU (DNA:RNA)
RNA: B7 RNA with A25C, A28C, U29C, C30A, C31U
DNA 1: CAATCTGAATTCCGGTCTCCC
DNA 2: TGGTGGCTACGACGGGATT
B17: AUACUUA (DNA:RNA)
RNA: B7 RNA with G26U, U27A, A28C, C30U, C31A
DNA 1: CAATCTGAATTCCGGTCTCCC
DNA 2: TGGTGGCTACGACGGGATT
B18: CACGAGG (DNA:RNA)
RNA: B1 RNA with G25C, U26A, G29A, A30G, A31G
DNA 1: CAATCTGAATTCCGGTCTCCC
DNA 2: TGGTGGCTACGACGGGATT
B19: UUGUCUU (DNA:RNA)
RNA: B1 RNA with G25U, C27G, G28U, G29C, A30U, A31U
DNA 1: CAATCTGAATTCCGGTCTCCC
DNA 2: TGGTGGCTACGACGGGATT
B20: CAUCGCC (DNA:RNA)
RNA: B7 RNA with A25C, G26A, A28C, U29G
DNA 1: CAATCTGAATTCCGGTCTCCC
DNA 2: TGGTGGCTACGACGGGATT
B21: UUGUAGC (DNA:RNA)
RNA: B7 RNA with A25U, G26U, U27G, A28U, U29A, C30G
DNA 1: CAATCTGAATTCCGGTCTCCC
DNA 2: TGGTGGCTACGACGGGATT
B22: UUAUCUA (DNA:RNA)
RNA: B1 RNA with G25U, C27A, G28U, G29C, A30U
DNA 1: CAATCTGAATTCCGGTCTCCC
DNA 2: TGGTGGCTACGACGGGATT
B23: AAUGAUU (DNA:RNA)
RNA: B7 RNA with G26A, A28G, U29A, C30U, C31U
DNA 1: CAATCTGAATTCCGGTCTCCC
DNA 2: TGGTGGCTACGACGGGATT
B24: AUGAGAG (DNA:RNA)
RNA: B1 RNA with G25A, C27G, G28A, A31G
DNA 1: CAATCTGAATTCCGGTCTCCC
DNA 2: TGGTGGCTACGACGGGATT
B25: AUCACAC (DNA:RNA)
RNA: B7 RNA with G26U, U27C, U29C, C30A
DNA 1: CAATCTGAATTCCGGTCTCCC
DNA 2: TGGTGGCTACGACGGGATT
B26: GGAGUUA (DNA:RNA)
RNA: B1 RNA with U26G, C27A, G29U, A30U
DNA 1: CAATCTGAATTCCGGTCTCCC
DNA 2: TGGTGGCTACGACGGGATT
B27: GCUCUCC (DNA:RNA)
RNA: B7 RNA with A25G, G26C, A28C
DNA 1: CAATCTGAATTCCGGTCTCCC
DNA 2: TGGTGGCTACGACGGGATT
B28: GAGGUGC (DNA:RNA)
RNA: B7 RNA with A25G, G26A, U27G, A28G, C30G
DNA 1: CAATCTGAATTCCGGTCTCCC
DNA 2: TGGTGGCTACGACGGGATT
B29: AUGCCAG (DNA:RNA)
RNA: B1 RNA with G25A, C27G, G28C, G29C, A31G
DNA 1: CAATCTGAATTCCGGTCTCCC
DNA 2: TGGTGGCTACGACGGGATT
B30: GAUAGAA (DNA:RNA)
RNA: B1 RNA with U26A, C27U, G28A
DNA 1: CAATCTGAATTCCGGTCTCCC
DNA 2: TGGTGGCTACGACGGGATT
B31: UCCGUGC (DNA:RNA)
RNA: B7 RNA with A25U, G26C, U27C, A28G, C30G
DNA 1: CAATCTGAATTCCGGTCTCCC
DNA 2: TGGTGGCTACGACGGGATT

molecular target: T1, RBFOX1 RRM RbFoxmut (Fox-RRM*); test: EMSA; HiTS-Eq, 1 nM pool, 10 min; buffer printed only for the single-RNA assays: 10 mM Tris pH 7.5, 150 mM NaCl, 3.4 mM EDTA, 0.001% NP-40, 30 C; settings: tags: His6 N-terminal (pET28a); label: 5' 32P
Summary of the method: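 A pool of RNA with 7 randomized nucleotides, 5′-radiolabelled and with DNA-annealed flanks, was equilibrated at 1 nM for 10 min in 50 µL with purified RbFox RRM, wild type or mutant, across increasing protein concentrations. Free RNA was separated by 8% native PAGE, excised, reverse-transcribed, barcoded by PCR and sequenced. Relative association constants were obtained from read-count changes of each RNA species versus the control reaction and normalised to the cognate motif.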

Binder	binding signal
B1	0.0952 KA relative to UGCAUGU
B2	0.0937 KA relative to UGCAUGU
B3	0.114 KA relative to UGCAUGU
B4	0.14 KA relative to UGCAUGU
B5	0.13 KA relative to UGCAUGU
B6	0.0343 KA relative to UGCAUGU
B7	0.143 KA relative to UGCAUGU
B8	0.0621 KA relative to UGCAUGU
B9	0.0719 KA relative to UGCAUGU
B10	0.0808 KA relative to UGCAUGU
B11	0.0995 KA relative to UGCAUGU
B12	0.07 KA relative to UGCAUGU
B13	0.096 KA relative to UGCAUGU
B14	0.0869 KA relative to UGCAUGU
B15	0.069 KA relative to UGCAUGU
B16	0.0848 KA relative to UGCAUGU

Binder	binding signal
B17	0.133 KA relative to UGCAUGU
B18	0.0774 KA relative to UGCAUGU
B19	0.0875 KA relative to UGCAUGU
B20	0.125 KA relative to UGCAUGU
B21	0.139 KA relative to UGCAUGU
B22	0.0805 KA relative to UGCAUGU
B23	0.0798 KA relative to UGCAUGU
B24	0.16 KA relative to UGCAUGU
B25	0.0973 KA relative to UGCAUGU
B26	0.101 KA relative to UGCAUGU
B27	0.0322 KA relative to UGCAUGU
B28	0.0992 KA relative to UGCAUGU
B29	0.11 KA relative to UGCAUGU
B30	0.099 KA relative to UGCAUGU
B31	0.084 KA relative to UGCAUGU
